By Ki is commonly meant a dissociation constant, usually derived from enzyme kinetics or from competition with a known ligand. A high value points to weaker binding.

Each structure is given as a SMILES string.

The first test concerns the target dopamine D2 receptor (Homo sapiens, UniProt P14416). In words: biochemical. The conditions noted are these: D2 Ki (nM), Table 1; 0.4 nM [3H]spiperone, CHO-hD2L membranes.
UniProt P14416, sequence (P14416 whole entry): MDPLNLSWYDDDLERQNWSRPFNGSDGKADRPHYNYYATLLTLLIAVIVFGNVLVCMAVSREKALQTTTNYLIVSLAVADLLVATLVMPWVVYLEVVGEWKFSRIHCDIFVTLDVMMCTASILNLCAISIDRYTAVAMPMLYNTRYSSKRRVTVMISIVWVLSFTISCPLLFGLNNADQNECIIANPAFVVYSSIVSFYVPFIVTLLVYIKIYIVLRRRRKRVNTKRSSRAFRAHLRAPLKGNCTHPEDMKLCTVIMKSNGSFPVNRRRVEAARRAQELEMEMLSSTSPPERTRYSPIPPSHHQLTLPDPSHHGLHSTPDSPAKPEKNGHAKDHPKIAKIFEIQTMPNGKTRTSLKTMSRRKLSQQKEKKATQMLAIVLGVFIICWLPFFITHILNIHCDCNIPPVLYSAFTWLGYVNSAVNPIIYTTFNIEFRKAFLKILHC
`O=C1CCc2cc(Cl)c(OCCCCN3CCN(c4cccc5ccccc45)CC3)nc2N1` [Example E6, 6-Chloro-7-[4-(4-naphthalen-1-yl-piperazin-1-yl)-butoxy]-3,4-dihydro-1H-[1,8]naphthyridin-2-one] had an inhibition constant Ki of 3.5 nM.

`O=C1CCc2cc(Br)c(OCCCCN3CCN(c4cccc(Cl)c4Cl)CC3)nc2N1` [Example E7, 6-Bromo-7-{4-[4-(2,3-dichloro-phenyl)-piperazin-1-yl]-butoxy}-3,4-dihydro-1H-[1,8]naphthyridin-2-one] showed an inhibitory constant (Ki) of 6.3 nM.

Consider `O=C1CCc2cc(Br)c(OCCCCN3CCN(c4cccc5ccccc45)CC3)nc2N1` [Example E8, 6-Bromo-7-[4-(4-naphthalen-1-yl-piperazin-1-yl)-butoxy]-3,4-dihydro-1H-[1,8]naphthyridin-2-one], for which affinity was put at a Ki of 1.4 nM.

`Cc1cc(OCCCCN2CCN(c3cccc(Cl)c3Cl)CC2)nc2c1CCC(=O)N2` [Example E9, 7-{4-[4-(2,3-Dichloro-phenyl)-piperazin-1-yl]-butoxy}-5-methyl-3,4-dihydro-1H-[1,8]naphthyridin-2-one] showed an inhibition constant (Ki) of 1.4 nM. Still for that read-out and setting: as for `Cc1cc(OCCCCN2CCN(c3cccc4ccccc34)CC2)nc2c1CCC(=O)N2` [Example E10, 5-Methyl-7-[4-(4-naphthalen-1-yl-piperazin-1-yl)-butoxy]-3,4-dihydro-1H-[1,8]naphthyridin-2-one], the figure is 1 nM. On the same count and under the same terms, as for `Cc1cc(OCCCCN2CCN(c3cccc4c3CCCC4)CC2)nc2c1CCC(=O)N2` [Example E11, 5-Methyl-7-{4-[4-(5,6,7,8-tetrahydro-naphthalen-1-yl)-piperazin-1-yl]-butoxy}-3,4-dihydro-1H-[1,8]naphthyridin-2-one], the figure is 1 nM. Still for that read-out and setting: then `Cc1cc(OCCCCN2CCN(c3cccc4c3CCC4)CC2)nc2c1CCC(=O)N2` [Example E12, 7-[4-(4-Indan-4-yl-piperazin-1-yl)-butoxy]-5-methyl-3,4-dihydro-1H-[1,8]naphthyridin-2-one], with 1 nM; and `O=C1CCc2c(C(F)(F)F)cc(OCCCCN3CCN(c4cccc5c4CCC5)CC3)nc2N1` [Example E13, 7-[4-(4-Indan-4-yl-piperazin-1-yl)-butoxy]-5-trifluoromethyl-3,4-dihydro-1H-[1,8]naphthyridin-2-one], with 5 nM; and `O=C1CCc2c(C(F)(F)F)cc(OCCCCN3CCN(c4cccc5ccccc45)CC3)nc2N1` [Example E14, 7-[4-(4-Naphthalen-1-yl-piperazin-1-yl)-butoxy]-5-trifluoromethyl-3,4-dihydro-1H-[1,8]naphthyridin-2-one], with 28.5 nM. The compound `O=C1CCc2c(C(F)(F)F)cc(OCCCCN3CCN(c4cccc5c4CCCC5)CC3)nc2N1` [Example E15, 7-{4-[4-(5,6,7,8-Tetrahydro-naphthalen-1-yl)-piperazin-1-yl]-butoxy}-5-trifluoromethyl-3,4-dihydro-1H-[1,8]naphthyridin-2-one] returned an inhibition constant (Ki) of 39.8 nM. `O=C1NCc2ccc(OCCCCN3CCN(c4cccc(Cl)c4Cl)CC3)nc2N1` [Example F1, 7-{4-[4-(2,3-Dichloro-phenyl)-piperazin-1-yl]-butoxy}-3,4-dihydro-1H-pyrido[2,3-d]pyrimidin-2-one]: the affinity, expressed as Ki, was 0.6 nM. `O=C1NCc2ccc(OCCCCN3CCN(c4cccc5ccccc45)CC3)nc2N1` [Example F2, 7-[4-(4-Naphthalen-1-yl-piperazin-1-yl)-butoxy]-3,4-dihydro-1H-pyrido[2,3-d]pyrimidin-2-one] yielded a Ki of 1 nM.

Still in this test, the particulars now being: D2 Ki (nM), Table 2; 0.4 nM [3H]spiperone, CHO-hD2L membranes.
In the case of `Cc1ccc2cccc(N3CCN(CCCCOc4ccc5c(n4)NC(=O)CO5)CC3)c2n1` [Example F1′, 6-{4-[4-(2-Methyl-quinolin-8-yl)-piperazin-1-yl]-butoxy}-4H-pyrido[3,2-b][1,4]oxazin-3-one], the Ki was determined as 0.7 nM. The same measure, in the same setting: as for `O=C1COc2ccc(OCCCCN3CCN(c4cccc5cccnc45)CC3)nc2N1` [Example F2′, 6-[4-(4-Quinolin-8-yl-piperazin-1-yl)-butoxy]-4H-pyrido[3.2-b][1,4]oxazin-3-one], the figure is 2.4 nM.

(Values after patent publication US7160888B2, “[1,8]naphthyridin-2-ones and related compounds for the treatment of schizophrenia” (Warner Lambert Company LLC, priority 2003, dated 2007).)
